# Results taken from the supplement of paper PMC8728848.
# The list shows a part of the results.
# Assays:
# Assay in all cases: glycan array binding signal (z-score within array); higher = stronger binding
# Conditions in all cases: glycan notation: IUPAC condensed, linker removed
# [1] = biological target: Neu5Ac(a2-6)Gal(b1-4)GlcNAc(b1-2)Man(a1-3)[Neu5Ac(a2-3)Gal(b1-4)GlcNAc(b1-2)Man(a1-6)]Man(b1-4)GlcNAc(b1-4)GlcNAc
# Method in brief: (§1)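 Glycan array data were curated from 3228 arrays in the Consortium for Functional Glycomics database and kept only where the protein sequence was available. Glycan names were converted to IUPAC-condensed notation, and columns mapping to the same glycan were averaged. The binding signal is a within-array Z-score, averaged across arrays of the same protein sequence at different concentrations or buffers and across linkers. Negative Z-scores can be read as non-binding.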
# [2] = biological target: Neu5Ac(a2-6)Gal(b1-4)GlcNAc(b1-2)Man(a1-3)[Neu5Ac(a2-6)Gal(b1-4)GlcNAc(b1-2)Man(a1-6)]Man(b1-4)GlcNAc(b1-4)GlcNAc
# Method in brief: as §1
# [3] = biological target: Neu5Ac(a2-6)Gal(b1-4)GlcNAc(b1-2)Man(a1-3)[Neu5Ac(a2-6)Gal(b1-4)GlcNAc(b1-2)Man(a1-6)]Man(b1-4)GlcNAc(b1-4)[Fuc(a1-6)]GlcNAc
# Method in brief: as §1
# [4] = biological target: Neu5Ac(a2-6)Gal(b1-4)GlcNAc(b1-2)Man(a1-6)Man(b1-4)GlcNAc(b1-4)GlcNAc
# Method in brief: as §1
# [5] = biological target: Neu5Ac(a2-6)Gal(b1-4)GlcNAc(b1-2)Man(a1-6)[Gal(b1-4)GlcNAc(b1-2)Man(a1-3)]Man(b1-4)GlcNAc(b1-4)GlcNAc
# Method in brief: as §1
# [6] = biological target: Neu5Ac(a2-6)Gal(b1-4)GlcNAc(b1-2)Man(a1-6)[GlcNAc(b1-2)Man(a1-3)]Man(b1-4)GlcNAc(b1-4)GlcNAc
# Method in brief: as §1
# [7] = biological target: Neu5Ac(a2-6)Gal(b1-4)GlcNAc(b1-2)Man(a1-6)[Man(a1-3)]Man(b1-4)GlcNAc(b1-4)GlcNAc
# Method in brief: as §1
# [8] = biological target: Neu5Ac(a2-6)Gal(b1-4)GlcNAc(b1-2)[Neu5Ac(a2-6)Gal(b1-4)GlcNAc(b1-4)]Man(a1-3)[GlcNAc(b1-4)][Neu5Ac(a2-6)Gal(b1-4)GlcNAc(b1-2)[Neu5Ac(a2-6)Gal(b1-4)GlcNAc(b1-6)]Man(a1-6)]Man(b1-4)GlcNAc(b1-4)GlcNAc
# Method in brief: as §1
# [9] = biological target: Neu5Ac(a2-6)Gal(b1-4)GlcNAc(b1-2)[Neu5Ac(a2-6)Gal(b1-4)GlcNAc(b1-4)]Man(a1-3)[GlcNAc(b1-4)][Neu5Ac(a2-6)Gal(b1-4)GlcNAc(b1-4)Man(a1-6)]Man(b1-4)GlcNAc(b1-4)GlcNAc
# Method in brief: as §1
# [10] = biological target: Neu5Ac(a2-6)Gal(b1-4)GlcNAc(b1-2)[Neu5Ac(a2-6)Gal(b1-4)GlcNAc(b1-6)]Man(a1-6)[Neu5Ac(a2-6)Gal(b1-4)GlcNAc(b1-2)Man(a1-3)][GlcNAc(b1-4)]Man(b1-4)GlcNAc(b1-4)GlcNAc
# Method in brief: as §1
# [11] = biological target: Neu5Ac(a2-6)Gal(b1-4)GlcNAc(b1-3)Gal(b1-3)GlcNAc
# Method in brief: as §1
# [12] = biological target: Neu5Ac(a2-6)Gal(b1-4)GlcNAc(b1-3)Gal(b1-4)GlcNAc
# Method in brief: as §1
# [13] = biological target: Neu5Ac(a2-6)Gal(b1-4)GlcNAc(b1-3)Gal(b1-4)GlcNAc(b1-2)Man(a1-3)[Neu5Ac(a2-6)Gal(b1-4)GlcNAc(b1-3)Gal(b1-4)GlcNAc(b1-2)Man(a1-6)]GalNAc
# Method in brief: as §1
# [14] = biological target: Neu5Ac(a2-6)Gal(b1-4)GlcNAc(b1-3)Gal(b1-4)GlcNAc(b1-3)Gal(b1-4)GlcNAc
# Method in brief: as §1
# [15] = biological target: Neu5Ac(a2-6)Gal(b1-4)GlcNAc(b1-3)Gal(b1-4)GlcNAc(b1-3)Gal(b1-4)GlcNAc(b1-2)Man(a1-3)[Neu5Ac(a2-6)Gal(b1-4)GlcNAc(b1-3)Gal(b1-4)GlcNAc(b1-3)Gal(b1-4)GlcNAc(b1-2)Man(a1-6)]GalNAc
# Method in brief: as §1
# [16] = biological target: Neu5Ac(a2-6)Gal(b1-4)GlcNAc(b1-3)Gal(b1-4)GlcNAc(b1-3)GalNAc
# Method in brief: as §1
# [17] = biological target: Neu5Ac(a2-6)Gal(b1-4)GlcNAc(b1-3)Gal(b1-4)GlcNAc(b1-3)[Neu5Ac(a2-6)Gal(b1-4)GlcNAc(b1-3)Gal(b1-4)GlcNAc(b1-6)]GalNAc
# Method in brief: as §1
# [18] = biological target: Neu5Ac(a2-6)Gal(b1-4)GlcNAc(b1-3)Gal(b1-4)GlcNAc(b1-6)[Gal(b1-3)]GalNAc
# Method in brief: as §1
# [19] = biological target: Neu5Ac(a2-6)Gal(b1-4)GlcNAc(b1-3)Gal(b1-4)[Fuc(a1-3)]GlcNAc(b1-3)Gal(b1-4)[Fuc(a1-3)]GlcNAc
# Method in brief: as §1
# [20] = biological target: Neu5Ac(a2-6)Gal(b1-4)GlcNAc(b1-3)GalNAc
# Method in brief: as §1
# [21] = biological target: Neu5Ac(a2-6)Gal(b1-4)GlcNAc(b1-3)[Neu5Ac(a2-6)Gal(b1-4)GlcNAc(b1-6)]GalNAc
# Method in brief: as §1
binder,measurement,setting,value
"NPA (Narcissus pseudonarcissus), C0HM45 (protein) DNILYSGETLSPGEFLNNGRYVFIMQEDCNLVLYDVDKPIWATNTGGLDRRCHLSMQSDGNLVVYSPRNNPIWASNTGGENGNYVCVLQKDRNVVIYGTARWATGTNIH",glycan array binding signal (z-score),[1],-0.142
same,glycan array binding signal (z-score),[2],-0.161
same,glycan array binding signal (z-score),[3],-0.137
same,glycan array binding signal (z-score),[4],-0.148
same,glycan array binding signal (z-score),[5],0.038
same,glycan array binding signal (z-score),[6],-0.1
same,glycan array binding signal (z-score),[7],3.41
same,glycan array binding signal (z-score),[8],-0.144
same,glycan array binding signal (z-score),[9],-0.152
same,glycan array binding signal (z-score),[10],-0.157
same,glycan array binding signal (z-score),[11],-0.15
same,glycan array binding signal (z-score),[12],-0.16
same,glycan array binding signal (z-score),[13],-0.117
same,glycan array binding signal (z-score),[14],-0.141
same,glycan array binding signal (z-score),[15],0.054
same,glycan array binding signal (z-score),[16],-0.143
same,glycan array binding signal (z-score),[17],0.01
same,glycan array binding signal (z-score),[18],-0.124
same,glycan array binding signal (z-score),[19],-0.11
same,glycan array binding signal (z-score),[20],-0.124
same,glycan array binding signal (z-score),[21],-0.15
